Results reported in PubChem BioAssay AID1345083 (National Center for Advancing Translational Sciences (NCATS), 2018).
About 6,200 (6.6%) of roughly 94,000 compounds were called active. Inconclusive results, whose numbers are uncertain, are shown with a selection of clear calls. Calls come from the whole dose curve; as a rule, active = well fitted inhibition curve with a large enough effect; inconclusive = small, poorly fitted or top-dose-only effect; inactive = flat fitted curve, though single readings scatter. Potencies of inconclusive entries are doubtful fits and often do not repeat.

Assay: Cytotoxic Profiling in HEK 293 Cell Line of Diverse Libraries Using Quantitative High-Throughput Screening; note: nearly all actives have a fitted effect of over 60% in size
Conditions: HEK 293 viability, ATP luminescence (CellTiter-Glo), 48-72 h; activity change, negative = cytotoxicity: at 115 µM (top of the series) unless noted; series mostly up to 115 µM
Outline: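 Viability of HEK 293 cells, plated at 250 cells/well, was judged by cellular ATP after compound treatment for 48 or 72 hr. Luminescence was imaged 10 min after CellTiter-Glo addition at room temperature.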
% is set by controls: 0 for no effect and ±100 for the full control effect; potency is the fitted concentration of half-maximal effect; tags give direction and shape of the fitted curve.

Compound | Potency | activity change, negative = cytotoxicity | outcome
COc1ccc(C(=O)N2CCC[C@H]2c2nc(-c3ccccc3Cl)no2)cc1F | inconclusive: 100 µM [inhibitor, single point] |  | 
Cc1nc2c(c(-c3ccc(O)cc3)n1)CN(CC1CC1)CC2 | inconclusive: 126 µM [inhibitor, single point] |  | 
C#CCNC(=O)C1CCCN1C(=O)c1cccc(-c2ccccn2)c1 (centres undefined) |  | inactive: -11.7% [at 172 µM] | 
COc1ccc(C(=O)N2CCC3(CC2)CC(N2CCCC2)CCO3)cc1 (centres undefined) |  | inactive: -4.77% | 
FC(F)(F)c1ccc(-c2noc([C@@H]3Cc4nc[nH]c4CN3CC3CCCCC3)n2)cc1 | active: 31.6 µM |  | 
O=C1c2ccccc2CN1C1CCN(Cc2ccc(C(F)(F)F)cc2)CC1 | inconclusive: 56.2 µM [inhibitor, partial curve, poor fit] |  | 
O=C(C1CCCN(Cc2cccc(-c3ccc(F)cc3F)c2)C1)N1CCC(Cc2ccccc2)CC1 (centres undefined) | inconclusive: 50.1 µM [inhibitor, partial curve, poor fit] |  | 
O=C(NCC1CC1)c1cccc(OC2CN(C3CCSCC3)C2)c1 | inconclusive: 89.1 µM [inhibitor, single point] |  | 
COc1ccc(-c2ccc(C(=O)N3CCC(NC(C)=O)CC3)cc2)nn1 |  | inactive: -4.3% | 
CS(=O)(=O)c1ccc(OC[C@H]2C[C@@H](NC(=O)c3cnccn3)[C@H](O)[C@@H]2O)cc1 | inconclusive: 89.1 µM [inhibitor, single point] |  | 
CCn1ccc(C(=O)N2CCC(C(=O)N3CCCCCCNC(=O)CC3)CC2)n1 |  | inactive: 1.46% | 
COC(=O)NC1CCN(Cc2ccc(-c3cc(F)ccc3OC)cc2)C1 (centres undefined) | inconclusive: 56.2 µM [inhibitor, partial curve, poor fit] |  | 
Cc1ccccc1C(=O)N1CCN(c2cc(-c3ccccc3)[nH]n2)CC1 | inconclusive: 50.1 µM [inhibitor, partial curve, poor fit] |  | 
COc1ccccc1CN1CCN(C(=O)CCC[C@H]2NC[C@@H]3C[C@H]2CN(Cc2ccccc2)C3)CC1 | inconclusive: 70.8 µM [inhibitor, partial curve, poor fit] |  | 
O=C1c2cc(N3CCOCC3)nc(-c3cccc(F)c3)c2CN1CC1CC1 | active: 112 µM |  | 
Cc1ccc(NC(=O)C2CCCN(c3cnc4nccnc4c3)C2)cc1Cl (centres undefined) | inconclusive: 50.1 µM [inhibitor, partial curve, poor fit] |  | 
Cc1ccc(-c2c(C(=O)N3CCN(C)CC3)nc3sccn23)cc1 |  | inactive: -22.5% | 
OCC1CCCN(c2cc(-c3ccccc3F)nc3ccnn23)C1 (centres undefined) | inconclusive: 89.1 µM [inhibitor, single point] |  | 
Cc1nc(C)c(C(=O)Nc2nn(Cc3ccccc3)c3cccc(OC(C)C)c23)o1 | inconclusive: 56.2 µM [inhibitor, partial curve, poor fit] |  | 
Cc1nc2c(NC(=O)C3COc4ccccc4O3)cccn2n1 (centres undefined) | inconclusive: 89.1 µM [inhibitor, single point] |  | 
CN(Cc1ccccc1)C(=O)c1cc(-c2ccc(C(F)(F)F)cc2)nc2c1cnn2C | inconclusive: 39.8 µM [inhibitor, partial curve] |  | 
Cc1cccn2c(CC(=O)N3CCn4nc(CO)cc4C3)cnc12 |  | inactive: 0.0537% | 

Compound | Potency | activity change, negative = cytotoxicity | outcome
C=CCOC(=O)C1=C(C)N=C2SC=C(CC(=O)NC3CC3)N2C1c1cccc(OC)c1OC (centres undefined) |  | inactive: -12.9% | 
CO[C@H]1CN(C2CCN(C(=O)c3cccs3)CC2)[C@H]1c1cccnc1 |  | inactive: -21.1% | 
CCn1ncc(C(=O)N2CCC3(CC2)CN(Cc2ccccc2)CC3CO)c1C (centres undefined) | inconclusive: 100 µM [inhibitor, single point] |  | 
COC1C(=O)N(c2cccc(F)c2)C12CCN(C(=O)c1cccc(C#N)c1)CC2 (centres undefined) | inconclusive: 100 µM [inhibitor, partial curve, poor fit] |  | 
O=C(NCCc1ccccn1)c1nc(-c2ccccc2)cc2[nH]ccc12 | active: 79.4 µM |  | 
Cn1cc(CN2C[C@H](C(=O)Nc3ccncn3)C[C@@H]2c2cccc(C(F)(F)F)c2)cn1 | inconclusive: 50.1 µM [inhibitor, full curve] |  | 
O=C(c1cc(Cl)ccc1Cl)N1CCN(c2cc(-c3ccccc3)[nH]n2)CC1 | inconclusive: 50.1 µM [inhibitor, partial curve, poor fit] |  | 
CCOc1ccccc1CN1CCC2(CCN(C(=O)Cc3ccccn3)CC2)Oc2ccccc21 | inconclusive: 50.1 µM [inhibitor, partial curve, poor fit] |  | 
Cc1ccc(OCc2nc(C3CN(C(=O)c4n[nH]c5ccccc45)C3)no2)cc1 | inconclusive: 17.8 µM [inhibitor, full curve, poor fit] |  | 
O=C(Nc1ccc(F)cc1)C1CCN(C(=O)c2ncn3c2COC(c2ccc(F)cc2)C3)CC1 (centres undefined) |  | inactive: -0.319% | 
CCCCC(=O)NC1CCN(c2cnn(Cc3ccccc3)c(=O)c2)CC1 | inconclusive: 79.4 µM [inhibitor, partial curve, poor fit] |  | 
O=C(c1n[nH]c(=O)c2ccccc12)N1CCC(Cc2noc(C3CCOCC3)n2)C1 (centres undefined) | inconclusive: 89.1 µM [inhibitor, single point] |  | 
O=C1Nc2ccccc2C12CCN(S(=O)(=O)c1cccc(C(F)(F)F)c1)CC2 | inconclusive: 56.2 µM [inhibitor, partial curve, poor fit] |  | 
CN(C)c1ccc(-c2nc(C3CC(=O)N(c4ccc(F)cc4)C3)no2)cc1 (centres undefined) |  | inactive: 1.43% | 
COc1cccc(-c2cc(C3CCN(C(=O)Nc4ccc(OC)cc4OC)CC3)[nH]n2)c1 | inconclusive: 50.1 µM [inhibitor, partial curve, poor fit] |  | 
CCCC(=O)N1Cc2ccccc2CC2(CCCN(CC3CCNC3)C2)C1 (centres undefined) | inconclusive: 89.1 µM [inhibitor, single point] |  | 
COCCNC(=O)[C@@H]1C[C@H](Oc2ccccc2)CN1C(=O)c1ccc(OC)c(F)c1 |  | inactive: -7.08% | 
Cc1ccc(C#N)c(N2CC[C@@H](c3ccc4c(c3)OCO4)[C@H](O)C2)n1 | inconclusive: 89.1 µM [inhibitor, single point] |  | 
O=C1Nc2ccccc2CC12CCN2Cc1ccc(F)cc1 (centres undefined) | inconclusive: 70.8 µM [inhibitor, full curve, poor fit] |  | 
Cc1cccc(CNC(=O)c2cc3n(n2)CC(c2ccc(Cl)cc2)OC3)c1 (centres undefined) | inconclusive: 50.1 µM [inhibitor, partial curve, poor fit] |  | 
O=C(Nc1ccc(Oc2ccccc2)cc1)O[C@@H]1CO[C@H]2[C@@H]1OC[C@@H]2n1nnnc1SC1CCCC1 | active: 25.1 µM |  | 
O=C(CN1CCCc2nc(-c3ccccc3)ncc2C1=O)NCCc1c[nH]c2ccccc12 | inconclusive: 28.2 µM [inhibitor, partial curve, poor fit] |  | 

Compound | Potency | activity change, negative = cytotoxicity | outcome
Cc1ccsc1CN1CCCOCCNC(=O)[C@@H]2CCCC[C@@H]21 | inconclusive: 35.5 µM [inhibitor, partial curve, poor fit] |  | 
CN1Cc2c(cc(N3CCOCC3)nc2-c2cccc(F)c2)C1=O | inconclusive: 70.8 µM [inhibitor, full curve, poor fit] |  | 
CC(C)S(=O)(=O)N1CCC(CCOc2ccccc2)C1 (centres undefined) | inconclusive: 44.7 µM [inhibitor, partial curve] |  | 
COc1cccc(CN2CCC3(CCC3OC)CC2)n1 (centres undefined) |  | inactive: -23.3% | 
O=C(Cc1cccc(Cl)c1)N1CCc2c(n(CCOc3ccccc3)n(-c3ccccc3)c2=O)C1 | inconclusive: 56.2 µM [inhibitor, partial curve, poor fit] |  | 
COc1ccc(-c2cc(N3CCC(NC(=O)c4ccccc4)CC3)n[nH]2)cc1 | inconclusive: 50.1 µM [inhibitor, partial curve, poor fit] |  | 
CCOC(=O)c1cn(C2CN(S(=O)(=O)c3cccc(F)c3)C2)nn1 |  | inactive: -18.3% | 
O=C(Nc1ccccc1F)N1CCCN(c2ccc3nnc(-c4ccccc4)n3n2)CC1 | inconclusive: 89.1 µM [inhibitor, single point] |  | 
O=C(C[C@@H]1CCNC[C@@H]1Cc1cc(CC2CCCCC2)on1)NCc1ccco1 | active: 44.7 µM |  | 
C=CCNC(=O)N[C@H]1CCN(C(=O)CSC)[C@@H]1C(=O)N[C@@H](Cc1cccs1)C(N)=O |  | inactive: -8.48% | 
CC(=O)N1CCCN(c2ncc(S(C)(=O)=O)c(C3CCCNC3)n2)CC1 (centres undefined) |  | inactive: -10.2% | 
COc1ccc(-c2nc3c(C)cccc3cc2CN2CCC(O)CC2)cc1OC | inconclusive: 89.1 µM [inhibitor, single point] |  | 
Cc1nc(CN2CC3(CCN(C)C3)c3cc(C(=O)Nc4ccccc4)ccc32)cs1 (centres undefined) | inconclusive: 112 µM [inhibitor, partial curve, poor fit] |  | 
CCc1ncc(CN2CCCC23CCN(c2ccc(C(F)(F)F)cn2)CC3)cn1 | inconclusive: 50.1 µM [inhibitor, partial curve, poor fit] |  | 
COc1ccccc1CNC(=O)C[C@@H]1CCNC[C@@H]1Cc1cc(C(C)(C)C)on1 | active: 100 µM |  | 
CC(C)(C)c1coc([C@@H]2COCCN2C2CCCCC2)n1 |  | inactive: -1.42% [at 230 µM] | 
O=C(Nc1cccc(Cl)c1)c1ccnc(-c2nnc3ccc(N4CCOCC4)nn23)c1 | inconclusive: 112 µM [inhibitor, partial curve, poor fit] |  | 
O=C(NC1CCN(c2cc(-c3cccs3)[nH]n2)CC1)c1ccc(F)cc1Cl | inconclusive: 79.4 µM [inhibitor, single point] |  | 
Cc1cc(CNC(=O)C2CC(=O)N(c3ccc(C(C)C)cc3)C2)no1 (centres undefined) |  |  | inactive
COc1ccc(F)cc1-c1ccc(CN2CCC(NC(=O)c3ccc(C(F)(F)F)cc3)C2)cc1 (centres undefined) | active: 20 µM |  | 
